From the supplement of paper PMC8792480 come the findings set out here.

Structures are written as SMILES. The list shows a part of the results. Most values come without repeats; read them as rough.
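Also: surface PD-L1 on NSCLC cells stained with a PE-labelled anti-human PD-L1 antibody before flow cytometry, screening a library of roughly two hundred mostly kinase and epigenetic inhibitors.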

For the assay, the system named is A549. In words: cell-surface PD-L1 MFI ratio relative to radiation alone (isotype-subtracted); higher = higher PD-L1 surface expression. The settings on record: inducer: radiation 8 Gy; 10 µM; 24 h. The protocol:
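A549 and H460 NSCLC cells were treated with each library drug at 10 uM, then with radiation (8 Gy) or cisplatin (4 uM), and incubated for 24 h. Cell-surface PD-L1 was measured by flow cytometry as an MFI ratio: (MFI drug+inducer - MFI isotype)/(MFI inducer alone - MFI isotype). Hits were defined as ratio < 0.75.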
On to `CN(C(=O)c1ccc(F)cc1C(F)(F)F)C1CCN(c2nnc(-c3ccnn3C)c3ccccc23)CC1`, for which the “cell-surface PD-L1 MFI ratio” value was inactive: 1.1. `FC(F)(F)c1ccc(CNc2ccc(Cc3c[nH]c4ncc(Cl)cc34)cn2)cn1` [Pexidartinib (PLX3397)]: the “cell-surface PD-L1 MFI ratio” value was inactive: 0.822. Then `COc1ccc(Oc2cc(NCCC(F)(F)F)c3ncc(-c4ccc(C(=O)NC5CC5)c(C)c4)n3n2)c(F)c1F`, with inactive: 0.852. To `C=CC(=O)N1CCC[C@@H](n2nc(-c3ccc(Oc4ccccc4)cc3)c3c(N)ncnc32)C1` [Ibrutinib] belongs inactive: 1.22; to `CCc1ccc(C(=O)Nc2cc(CN3CCN(C)CC3)cc(C(F)(F)F)c2)cc1C#Cc1cnc2ccnn2c1`, inactive: 0.927. Then `CCC(=O)Nc1cccc(Oc2nc(Nc3ccc(N4CCN(C)CC4)cc3OC)ncc2Cl)c1`, with inactive: 0.946; and `COc1cc2ncnc(Nc3ccc(F)c(Cl)c3)c2cc1OCCCN1CCOCC1` [Gefitinib], with inactive: 1.01; and `CN(C)c1cccc(-c2c3c(=O)n(-c4ccccc4Cl)[nH]c3cc(=O)n2C)c1`, with inactive: 0.86. Turning to `CC(=O)Nc1cccc(-n2c(=O)n(C3CC3)c(=O)c3c(Nc4ccc(I)cc4F)n(C)c(=O)c(C)c32)c1`, the “cell-surface PD-L1 MFI ratio” value was inactive: 1.58. Turning to `CC1(C)[C@@H](O[C@H]2O[C@H](C(=O)O)[C@@H](O)[C@H](O)[C@H]2O[C@@H]2O[C@H](C(=O)O)[C@@H](O)[C@H](O)[C@H]2O)CC[C@]2(C)[C@H]3C(=O)C=C4[C@@H]5C[C@@](C)(C(=O)O)CC[C@]5(C)CC[C@@]4(C)[C@]3(C)CC[C@@H]12` [Glycyrrhizin (Glycyrrhizic Acid)], the “cell-surface PD-L1 MFI ratio” value is inactive: 0.77. Regarding `CCN(CC)CCNC(=O)c1c(C)[nH]c(/C=C2\C(=O)Nc3ccc(-c4csc(-c5ccccc5)n4)cc32)c1C` [Amcasertib (BBI503)], the “cell-surface PD-L1 MFI ratio” value is inactive: 6.4.

For `CCCc1cc(C)[nH]c(=O)c1CNC(=O)c1cc(-c2ccc(N3CCN(C(C)C)CC3)nc2)cc2c1cnn2C(C)C`, the “cell-surface PD-L1 MFI ratio” value is inactive: 1.16. Then `Cc1cccc(CC(=O)N2CCc3c2ccc(-c2cn(C)c4ncnc(N)c24)c3F)n1`, with inactive: 0.918; and `CN(C)C(=O)c1ccc(S(=O)(=O)c2ccc(NC(=O)[C@@](C)(O)C(F)(F)F)c(Cl)c2)cc1`, with inactive: 0.915; and `CS(=O)(=O)CCNCc1ccc(-c2ccc3ncnc(Nc4ccc(OCc5cccc(F)c5)c(Cl)c4)c3c2)o1`, with inactive: 1.35.

Regarding `Cc1[nH]c(/C=C2\C(=O)Nc3ccccc32)c(C)c1CCC(=O)O` [Orantinib (TSU-68, SU6668)], the “cell-surface PD-L1 MFI ratio” value was inactive: 1.08. Then `CC(C)(C)c1nc(-c2ccc(NC(=O)Nc3cccc(C(F)(F)F)c3)c3ccccc23)c2c(N)nccn12` [kira6], with inactive: 2.31. To `O=C(O)c1ccc2c3c1cccc3c(=O)n1c3ccccc3nc21` belongs inactive: 1.09. To `CS(=O)(=O)c1ccc(C(=O)Nc2ccc(Cl)c(-c3ccccn3)c2)c(Cl)c1` [Vismodegib (GDC-0449)] belongs inactive: 1.14; to `N#CC[C@H](C1CCCC1)n1cc(-c2ncnc3[nH]ccc23)cn1`, inactive: 1.38; to `COc1ccc(CCc2nc3cc(-c4c(C)noc4C)ccc3n2C[C@H](C)N2CCOCC2)cc1Cl`, inactive: 0.751.

Regarding `Cc1cc(C(C)Nc2ccccc2)c2nc(N3CCOCC3)cc(=O)n2c1` (stereo not given), the “cell-surface PD-L1 MFI ratio” value is inactive: 1. Then `CC[C@H](C)C(=O)O[C@H]1C[C@@H](C)C=C2C=C[C@H](C)[C@H](CC[C@@H]3C[C@@H](O)CC(=O)O3)[C@H]21` [Lovastatin], with inactive: 1.17; and `COc1ccc(C2CC(c3ccccc3)=NN2c2ccc(S(N)(=O)=O)cc2)cc1` (stereo not given), with inactive: 0.84. To `COc1cc2nccc(Oc3ccc(NC(=O)C4(C(=O)Nc5ccc(F)cc5)CC4)cc3)c2cc1OC` [Cabozantinib] belongs inactive: 1.3; to `O=c1cc(CN2CCOCC2)occ1OCCCCCSc1ccnc2cc(C(F)(F)F)ccc12`, active: 0.6; to `CCCCCCCCCCCCCC(=S)NCCCC[C@H](NC(=O)OCc1ccccc1)C(=O)Nc1ccccc1` [Thiomyristoyl], active: 0.749. To `CCCCCCCCc1ccc(CCC(N)(CO)CO)cc1` [Fingolimod] belongs inactive: 0.876.

With `Cc1[nH]c2ccccc2c1CCNCc1ccc(/C=C/C(=O)NO)cc1` [Panobinostat], the “cell-surface PD-L1 MFI ratio” value is inactive: 1.06. To `CNC(=O)c1cc(Oc2ccc3nc(N[C@@H]4CCCC[C@H]4O)sc3c2)ccn1` belongs active: 0.675. To `C[C@@H](Oc1cc(-c2cnn(C3CCNCC3)c2)cnc1N)c1c(Cl)ccc(F)c1Cl` belongs inactive: 0.831; to `CN1c2ccccc2C(=O)Nc2cnc(Nc3ccc(N4CCC(O)CC4)cc3)nc21`, active: 0.682. On to `CC[C@@H](N)CNc1ccnc(-c2cc(-c3cnn(C)c3)ccc2O)n1`, for which the “cell-surface PD-L1 MFI ratio” value is inactive: 1.67.

Take `O=C(CCCCCCC(=O)Nc1ccccc1)NO` [Vorinostat (SAHA, MK0683)]: the “cell-surface PD-L1 MFI ratio” value was inactive: 1.38. To `Cc1cc(C)cc(Oc2ccc(CNC(=O)[C@H](C)N)cc2C)c1` belongs inactive: 0.931; to `N[C@@H]1CCCN(c2c(/C=C3\SC(=O)NC3=O)cccc2-c2ccccc2)C1`, inactive: 1.1; to `O=C([C@@H](Cc1cccc(C(F)(F)F)c1)NS(=O)(=O)c1cc(F)c2c(c1)CCNC2)N1CCCC1`, inactive: 0.866.

As for `Oc1ccc(Nc2nc(-c3ccc(Cl)cc3)cs2)cc1`, the “cell-surface PD-L1 MFI ratio” value is active: 0.657. For the compound `Cc1ccc(C(=O)Nc2cccc(C(F)(F)F)c2)cc1Nc1nc(-c2cccnc2)nc2c1cnn2C`, the “cell-surface PD-L1 MFI ratio” value is inactive: 0.84. To `COc1ccc(-c2cc3nccn3c(Nc3ncccc3C(N)=O)n2)cc1OC` belongs inactive: 0.83.
